# Source: paper PMC4336329 (PLoS ONE, 2015)
# About 2,200 (0.71%) of roughly 310,000 compounds showed an effect of 50% or more. Effects have a minus sign here. Some of the results follow.
# Molecular target: human ether-à-go-go-related gene (hERG) potassium channel (human, UniProt Q12809)
# Test: primary screen, population patch clamp on CHO cells stably expressing hERG
# Chain of human ether-à-go-go-related gene (hERG) potassium channel (Q12809 whole entry, looked up): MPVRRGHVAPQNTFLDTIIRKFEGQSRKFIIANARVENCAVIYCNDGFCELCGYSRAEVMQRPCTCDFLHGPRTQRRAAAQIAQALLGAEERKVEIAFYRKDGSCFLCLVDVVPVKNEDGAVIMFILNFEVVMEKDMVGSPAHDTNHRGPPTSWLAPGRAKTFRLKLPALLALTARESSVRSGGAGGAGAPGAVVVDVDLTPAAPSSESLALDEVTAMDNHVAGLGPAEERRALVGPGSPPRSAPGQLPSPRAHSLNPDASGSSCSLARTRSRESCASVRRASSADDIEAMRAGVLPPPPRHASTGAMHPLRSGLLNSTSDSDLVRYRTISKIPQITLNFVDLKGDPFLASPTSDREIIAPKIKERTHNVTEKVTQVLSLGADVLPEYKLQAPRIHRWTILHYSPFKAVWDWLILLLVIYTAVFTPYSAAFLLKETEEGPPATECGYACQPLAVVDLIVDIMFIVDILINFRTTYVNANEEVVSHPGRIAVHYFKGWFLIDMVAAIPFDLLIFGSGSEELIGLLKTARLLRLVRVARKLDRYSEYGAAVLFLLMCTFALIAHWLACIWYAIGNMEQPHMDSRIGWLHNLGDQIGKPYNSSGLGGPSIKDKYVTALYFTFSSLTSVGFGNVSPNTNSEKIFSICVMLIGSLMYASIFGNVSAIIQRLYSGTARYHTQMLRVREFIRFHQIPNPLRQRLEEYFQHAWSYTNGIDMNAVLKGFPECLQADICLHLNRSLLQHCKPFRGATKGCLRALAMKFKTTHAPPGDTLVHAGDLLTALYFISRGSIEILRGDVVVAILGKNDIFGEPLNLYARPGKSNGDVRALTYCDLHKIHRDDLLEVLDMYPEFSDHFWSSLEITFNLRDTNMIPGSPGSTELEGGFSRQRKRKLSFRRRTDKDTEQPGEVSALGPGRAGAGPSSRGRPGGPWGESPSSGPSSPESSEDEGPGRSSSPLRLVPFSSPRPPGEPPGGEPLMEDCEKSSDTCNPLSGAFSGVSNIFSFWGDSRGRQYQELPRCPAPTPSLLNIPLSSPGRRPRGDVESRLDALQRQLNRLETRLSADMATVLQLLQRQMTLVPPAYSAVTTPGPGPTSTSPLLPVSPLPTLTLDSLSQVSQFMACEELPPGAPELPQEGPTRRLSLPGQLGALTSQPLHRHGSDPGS
row,Compound,"hERG current change (%, negative = inhibition) at 1uM"
1,O=C(C[n+]1ccncc1)c1ccccc1.[Br-],17.2%
2,Cn1nnnc1SCC(=O)NC1CCCCC1,3.13%
3,CNc1cc(Cl)nc(SC)n1,14.9%
4,CCCCCC(=O)NNC(=O)c1ccc(-c2ccccc2)cc1,-1.47%
5,Cc1ccc(C)n1-c1ccc(C#N)cn1,-17.8%
6,COc1nc(OC)nc(N(C)CCO)n1,12.2%
7,Cn1c(=O)c2c(ncn2CC(=O)OCc2ccccc2)n(C)c1=O,1.24%
8,COc1nc(Nc2ccc(OC)c(Cl)c2)nc(OC)n1,12.5%
9,C=CCN=C(NC#N)SC,14.6%
10,COc1ccccc1CN1CCNC(=O)C1CC(=O)NCc1csc(C)n1 (centres unmarked),11.5%
11,CN(C)/N=C/c1cn(-c2ccccc2)nc1-c1cccnc1,4.34%
12,C=CCC(c1ccccc1)N(C(C)=O)c1ccco1 (centres unmarked),14.3%
13,Nc1nnc(SCC(=O)Nc2ccc(N3CCOCC3)cc2)s1,0.81%
14,CC(=O)Nc1ccc(C(=O)Nc2ccc3c(c2)OCO3)cc1,1.88%
15,Cc1ccc2nc(-c3ccc(NC(=S)NC(=O)C(C)C)cc3)sc2c1,-0.302%
16,CCNC(=O)CC1C(=O)N(c2ccccc2)C(=O)N1CCc1ccc(OC)c(OC)c1 (centres unmarked),20.8%
17,Cc1noc(NS(=O)(=O)c2ccc(N3C(=O)c4ccccc4C3=O)cc2)c1C,14.9%
18,Cc1cc([N+](=O)[O-])nn1CC(=O)NNC(=S)Nc1ccc([N+](=O)[O-])cc1,11.8%
19,O=C(O)CCC(=O)c1ccc2c(c1)CCCC2,11.6%
20,COc1ccccc1NC(=O)CSc1nnc(CC(=O)Nc2cccc(C(F)(F)F)c2)n1C,7.82%

row,Compound,"hERG current change (%, negative = inhibition) at 1uM"
1,COCCNC(=O)C(c1ccc(Cl)cc1)N(C(=O)Cn1nnc2ccccc21)c1cccnc1 (centres unmarked),7.46%
2,Cc1nn(CCOc2ccccc2Cl)c(C)c1[N+](=O)[O-],11.5%
3,CCCOc1ccc(NC(=O)CC2C(=O)N(c3ccc(OCC)cc3)C(=S)N2C2CC2)cc1 (centres unmarked),-3.7%
4,O=C1C=C(NCCN2CCOCC2)C(=O)c2cnccc21,6.07%
5,Oc1cccc(/C=N/n2c(C3CCCCC3)n[nH]c2=S)c1,13.2%
6,Cc1ccc(-n2nc3c(c2NC(=O)CCC2CCCCC2)CS(=O)C3)cc1 (centres unmarked),3.94%
7,CCOc1ccccc1NC(=O)C(NC(=O)C1CCC(C)CC1)C(C)C (centres unmarked),2.93%
8,COC(=O)c1cc2c(ccn2-c2ccc(F)cc2)n1C(C)C,-0.311%
9,C#CC(C)(CC)NC(=O)c1cc2nc(C3CC3)cc(C(F)(F)F)n2n1 (centres unmarked),-0.157%
10,O=C(CSc1nc2nc3c(cc2c(=O)n1-c1ccccc1)CCCC3)Nc1cccc2ccccc12,1.74%
11,CCn1c(SCC(=O)Nc2ccc3c(c2)OCO3)nnc1C1CC1,17.4%
12,NNC(=O)CCCCCCCCCCOCCCCO,9.18%
13,N#C/C(=C(/O)CN1C(=O)c2ccccc2C1=O)c1nc2ccccc2[nH]1,10.8%
14,Cc1cc(C(=O)Nc2nncs2)oc1C,17%
15,CC(=O)c1cccc(NC2=NCC(C)S2)c1 (centres unmarked),7.57%
16,Oc1ccc(Cn2ccnc2)c2cccnc12,1.77%
17,CC(C)(C)NC(=O)C(c1c[nH]c2ccccc12)N(C(=O)Cn1nnc(-c2ccc(F)cc2)n1)c1cccc(O)c1 (centres unmarked),6.78%
18,COc1ccccc1NC(=O)Nc1nc(CC(=O)N2CCN(c3ccc(F)cc3)CC2)cs1,15%
19,Cc1ccc(NC(=O)CCn2c(=S)oc3ccccc32)cc1,11%
20,C[N+]1(CCOC(=O)C2(c3ccccc3)CCCC2)CCCCC1,-3.42%

row,Compound,"hERG current change (%, negative = inhibition) at 1uM"
1,Brc1ccc(-c2ncc(-c3ccccc3)cn2)cc1,14.8%
2,CC1(C)N=C(SCC(=O)Nc2ccc(Cl)cc2)C(c2ccc(Cl)cc2)=N1,-4.94%
3,O=C(CC1(O)C(=O)N(Cc2ccccc2)c2ccccc21)c1ccncc1 (centres unmarked),3.35%
4,Cc1cc(C)c(C#N)c(OCC(=O)c2ccccc2)n1,10.7%
5,COC(=O)CC1COc2ccccc2N1S(=O)(=O)c1ccc(OC)cc1 (centres unmarked),12.1%
6,CCN(CC)S(=O)(=O)c1ccc(N(C)CCc2ccc(OC)c(OC)c2)nc1,7.66%
7,CCOc1ccc(C2C(C(=O)O)c3ccccc3C(=O)N2CCN2CCOCC2)cc1 (centres unmarked),20.1%
8,COc1ccc(-c2nnc(NC(=O)CSc3ccc(C)cc3)s2)cc1OC,6.59%
9,O=C(c1ccccc1)c1c[nH]c2cc3c(cc2c1=O)OCCO3,2.37%
10,COC(=O)c1sccc1NC(=S)N1C(C)CCCC1C (centres unmarked),8.81%
11,CCCOC(=O)c1c(-c2ccc(OC)cc2)oc2ccc(-c3ccc(OC)nc3)cc12,14%
12,CC(C)(C)NC(=O)NC(=O)CSc1nnc(-c2ccccc2F)n1N,11.7%
13,O=C1C=C(c2ccc3c(c2)OCCO3)C[C@@H](c2ccc(F)cc2)C1,10.9%
14,CCCNC(=O)CC1C(=O)N(Cc2ccccc2)C(C)c2nc3ccccc3n21 (centres unmarked),14.4%
15,CCCCC(=O)Nc1ccc2c(c1)nc(CCNC(=O)c1ccco1)n2C,6.33%
16,CC(NC(=O)C12CC3CC(CC(O)(C3)C1)C2)c1ccccc1 (centres unmarked),9.23%
17,Cn1cccc1C(C(=O)NC1CCCCC1)N(C(=O)Cc1cccs1)c1ccc2c(c1)OCO2 (centres unmarked),-2.56%
18,Cc1ccc(-c2c[n+](Cc3cccc(Cl)c3)c3n2CCC3)cc1.[Br-],-0.905%
19,COc1ccc(OCC(O)CNC(=O)Nc2cc(C)cc(C)c2)cc1 (centres unmarked),11.7%
